Source: PubChem BioAssay AID504832 (National Center for Advancing Translational Sciences (NCATS), 2011)
In all, about 310,000 compounds went through this assay and about 18,000 (5.8%) were called active. Inconclusive means that the source gave no clear call. Such entries were picked first, then a sample of the others. The call rests on the fitted dose curve; in most records, active means well fitted inhibition curve with a large enough effect; inconclusive means small, poorly fitted or top-dose-only effect, or another doubt; inactive means no such curve, though single readings can be large or run the other way. No potency is given beside an inconclusive call; the fits are too rough.

Experiment: Primary qHTS for delayed death inhibitors of the malarial parasite plastid, 48 hour incubation
Details: P. falciparum luciferase growth in erythrocytes; series mostly up to 28.7 µM; activity change, negative = inhibition: at the top concentration
Summary of the method: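 In quantitative HTS format, infected erythrocytes bearing luciferase-reporter parasites were treated for a single generation at 37 C. Luminescence after adding detection reagent served as the growth measure.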
On the % scale 0 is the no-effect control and ±100 the full control effect; potency means the concentration at half of the fitted maximal effect; tags describe the fitted curve by direction and shape.

Row | Structure (SMILES) | activity change, negative = inhibition | Potency
1 | O=C(COC(=O)CCc1ccc(S(=O)(=O)N2CCOCC2)cc1)NCc1ccccc1 | inactive: 17.8% | –
2 | Cc1ccc(N(C(=O)c2cc3ccccc3oc2=O)C2C=CS(=O)(=O)C2)cc1 (stereo unspecified) | inactive: 3.39% | –
3 | CN(c1ccccc1)S(=O)(=O)c1ccc(C(=O)NCc2cccs2)cc1 | – | inconclusive [inhibitor, single point]
4 | O=C(NCCc1ccccc1)C1CCCN1S(=O)(=O)c1ccccc1 (stereo unspecified) | inactive: 13.4% | –
5 | CC(=O)NNC(=S)NC(=O)c1ccccc1 | – | inconclusive [inhibitor, single point]
6 | CC(NC(=O)CC(c1ccccc1)c1cc(Cl)ccc1O)c1ccccc1 (stereo unspecified) | – | inconclusive [inhibitor, single point]
7 | CC(C)c1ccc(/C=C2\SC(N3CCOCC3)=NC2=O)cc1 | – | inconclusive [inhibitor, partial curve]
8 | COc1cccc(OC)c1C(=O)N1CCNCC1 | inactive: -7.66% | –
9 | COC(=O)C1Cc2ccccc2CN1S(=O)(=O)c1ccc(F)cc1 (stereo unspecified) | inactive: -8.07% | –
10 | O=C(c1ccco1)N1CCN(C(c2ccccc2)c2nnnn2Cc2cccs2)CC1 (stereo unspecified) | inactive: -53.3% | –
11 | Cc1cc(N2CCCC2)nc2ccc(NC(=S)NCCCOC(C)C)cc12 | – | inconclusive [inhibitor, partial curve, poor fit]
12 | O=C(/C=C\c1ccc2c(c1)OCO2)Nc1c2c(nn1-c1ccc(Cl)cc1)CSC2 | – | inconclusive [inhibitor, single point]
13 | Oc1ccc(/C(Cc2ccc3ccccc3n2)=N\Nc2ccccc2)c(O)c1 | – | inconclusive [inhibitor, single point]
14 | COc1ccc(NC(=O)c2ccc(-c3ccc([N+](=O)[O-])cc3)o2)cc1 | inactive: 18.3% | –
15 | O=[N+]([O-])c1cc(Cl)cc(/C=N/NC(=S)Nc2ccc(S(=O)(=O)N3CCOCC3)cc2)c1O | – | active: 0.465 µM
16 | CC1CCN(CCc2nc3cc(NC(=O)Nc4ccccc4)ccc3n2C)CC1 | – | active: 6.57 µM
17 | COc1ccc(-c2ccc(-c3noc(-c4ccccc4OC)n3)c(OC)n2)cc1 | – | inconclusive [inhibitor, partial curve, poor fit]
18 | NC(=O)c1nsc(C(=O)N(Cc2ccco2)C(C(=O)NCc2ccccc2)c2ccc(O)cc2)c1N (stereo unspecified) | – | inconclusive [inhibitor, single point]
19 | O=C(c1ccc2ccccc2c1)C1CCCN(C(=O)CN2C(=O)CSC2=O)C1 (stereo unspecified) | inactive: 21.2% | –
20 | Cc1cc(C)c2nc(C)cc(N/N=C/c3ccc(O)cc3)c2c1 | – | active: 0.131 µM
21 | O=C(N=Nc1c(O)[nH]c2ccccc12)c1cc(NS(=O)(=O)c2cccs2)cc(NS(=O)(=O)c2cccs2)c1 | – | inconclusive [inhibitor, single point]
22 | CC1(C(=O)NCCc2c[nH]c3ccccc23)C=CC2(CCCCC2)N1C(=O)c1ccccc1 (stereo unspecified) | – | inconclusive [inhibitor, partial curve, poor fit]

Row | Structure (SMILES) | activity change, negative = inhibition | Potency
23 | Cc1ccc(-n2cc(CNCCc3cscn3)c(-c3ccc(F)cc3)n2)cc1 | – | inconclusive [inhibitor, single point]
24 | CCc1cc2ccc(C)cc2nc1SCC(=O)N1CCN(C(=O)c2ccco2)CC1 | – | inconclusive [inhibitor, partial curve, poor fit]
25 | O=C(Nc1cccc(NC(=O)C2CC3CCCC(C2)C3=O)n1)C1CC2CCCC(C1)C2=O (stereo unspecified) | – | inconclusive [inhibitor, single point]
26 | COc1cc(/C=C2\SC(=S)N(CC(=O)NC3=NCCS3)C2=O)cc(OC)c1OC | – | inconclusive [inhibitor, single point]
27 | COC(=O)CNC(c1ccccc1Cl)c1cc(Br)ccc1NC(=O)CCN1CCOCC1 (stereo unspecified) | – | inconclusive [inhibitor, partial curve, poor fit]
28 | COc1ccc(C(=O)Nc2ccc(N3CCC(C)CC3)cc2)cc1Br | – | inconclusive [inhibitor, partial curve, poor fit]
29 | O=C(NCCc1ccc(C(F)(F)F)cc1)c1ccc(Cl)nc1 | – | inconclusive [inhibitor, partial curve, poor fit]
30 | CCOC(=O)c1cc2c(ccn2C)n1CC(=O)N1CCN(c2ccccc2OC)CC1 | – | inconclusive [inhibitor, partial curve]
31 | COc1ccc2oc(=O)cc(CN3CCN(Cc4ccc(OC)c(OC)c4OC)CC3)c2c1 | – | inconclusive [inhibitor, single point]
32 | O=C(Nc1sc2c(c1C(=O)O)CCC2)c1cccs1 | inactive: 45.9% | –
33 | C=CCn1c2ccccc2n2nc(C)c(=O)nc12 | inactive: -16.8% | –
34 | CCN1C(=O)/C(=C2/Sc3ccccc3N2CC)SC1=S | inactive: 8.49% | –
35 | COC(=O)/C=C/C(=O)N1CCN(c2ccccc2)CC1 | inactive: -5.29% | –
36 | COc1ccc(-c2cc(=O)oc3cc(OC(C)C(=O)NCCCn4ccnc4)ccc23)cc1 (stereo unspecified) | – | inconclusive [inhibitor, single point]
37 | C/C(=N\NC(=O)c1ccc(OC2CCCC2)cc1)c1ccc(O)cc1 | – | inconclusive [inhibitor, single point]
38 | O=C(c1nc2nc(-c3cccs3)cc(C(F)(F)F)n2n1)N1CCN(Cc2ccccc2)CC1 | – | inconclusive [inhibitor, single point]
39 | O=C(C1CCCN(S(=O)(=O)c2cccc3nonc23)C1)N1CCC(Cc2ccccc2)CC1 (stereo unspecified) | – | inconclusive [inhibitor, single point]
40 | COc1ccc(S(=O)(=O)N2CCN(C(=O)CCOc3ccccc3)CC2)cc1OC | – | inconclusive [inhibitor, single point]
41 | O=S(=O)(c1ccc(Br)cc1)c1nc(-c2ccccc2)oc1N1CCOCC1 | – | inconclusive [inhibitor, single point]
42 | COc1cc(S(=O)(=O)N(Cc2ccccn2)Cc2ccco2)ccc1-n1cnnn1 | – | inconclusive [inhibitor, full curve, poor fit]
43 | Nc1cccc2c1C(=O)N(C(=O)/C=C/c1cccc(F)c1)C2=O | inactive: 20.1% | –
44 | COc1ccc(NC(=S)NC2CCCCCC2)c(OC)c1 | – | inconclusive [inhibitor, single point]

Row | Structure (SMILES) | activity change, negative = inhibition | Potency
45 | COc1ccc(/C=C/C(=O)NC2CCN(Cc3ccccc3)CC2)cc1OC | – | inconclusive [inhibitor, partial curve, poor fit]
46 | Cc1c(CCC(=O)NCCCC(=O)O)c(=O)oc2cc3oc4c(c3cc12)CCCC4 | inactive: -18.3% | –
47 | C#CCOCCOCCOCCNc1nc(N2CCN(C(=O)[C@H](Cc3ccc(O)cc3)n3cc([C@@H](N)C(C)CC)nn3)CC2)nc(N2CCN(C(=O)[C@H](Cc3cc4ccccc4[nH]3)n3cc([C@@H](N)Cc4ccc(O)cc4)nn3)CC2)n1 (stereo partly specified) | – | active: 10.4 µM
48 | CC(C)(C)OC(=O)N1CCC(NC(=O)c2[nH]cnc2C(=O)Nc2ccc(Cl)cc2)CC1 | – | inconclusive [inhibitor, single point]
49 | CC(C)OCCCn1c(=NC(=O)c2ccncc2)c(C#N)cc2c(=O)n3ccccc3nc21 | – | inconclusive [inhibitor, partial curve]
50 | O=C(Cn1c(=O)c2cccn2c2cccnc21)NCCCN1CCN(c2ccc(F)cc2)CC1 | – | inconclusive [inhibitor, single point]
51 | CCN(CC)S(=O)(=O)c1ccc(N/N=C(\C)c2ccncc2)c([N+](=O)[O-])c1 | – | inconclusive [inhibitor, partial curve, poor fit]
52 | Oc1c(C(c2ccccn2)N2CCOCC2)ccc2cccnc12 (stereo unspecified) | – | active: 9.28 µM
53 | CC1CC(C)CN(C(=O)/C(=C\c2ccccc2)c2ccccc2)C1 (stereo unspecified) | – | active: 1.85 µM
54 | C/C(N)=C(/C#N)C(=O)COC(=O)c1ccccc1O | inactive: 38% | –
55 | CCCCc1ccc(N/C(N)=N/c2nc(C)cc(C)n2)cc1 | – | inconclusive [inhibitor, partial curve, poor fit]
56 | Cc1nnc(SCC(=O)c2cc(C)n(C3CC3)c2C)s1 | inactive: -4.22% | –
57 | CCOC(=O)C1(CC2CCCCO2)CCN(C(=O)Nc2ccc(SC)cc2)CC1 (stereo unspecified) | – | inconclusive [inhibitor, partial curve]
58 | O=C(Cn1nnc2ccccc2c1=O)Nc1cccc(S(=O)(=O)N2CCOCC2)c1 | – | inconclusive [inhibitor, single point]
59 | COc1ccccc1CNC(=O)N1CCN(S(=O)(=O)c2ccc(Cl)cc2)CC1 | – | inconclusive [inhibitor, partial curve, poor fit]
60 | O=C(CN1CCN(C(=O)C2CC2)CC1)Nc1cc(C(F)(F)F)cc(C(F)(F)F)c1 | inactive: -22.8% | –
61 | Cc1ccc(NC(=O)c2c(C(F)(F)F)nn(C)c2SCc2ccc(Cl)cc2)cc1C | – | inconclusive [inhibitor, single point]
62 | O=C(CSc1nc(=O)n(CCCN2CCOCC2)c2c1CCC2)Nc1ccc(F)cc1 | – | inconclusive [inhibitor, single point]
63 | COc1cccc2c1OCC(CN1CCN(Cc3ccccc3F)C(CCO)C1)=C2 (stereo unspecified) | – | inconclusive [inhibitor, partial curve, poor fit]
64 | CCCCCc1cc(=O)oc2c(C(CCN3CCCCC3)c3ccc(OC)cc3)c(OC)cc(OC)c12 (stereo unspecified) | – | active: 3.29 µM
65 | O=C(Nc1ccccc1N1CCN(c2ccccc2)CC1)c1cccc(F)c1 | – | inconclusive [inhibitor, single point]
66 | Cc1noc(C)c1S(=O)(=O)N(CC(=O)NC(C)c1ccccc1)c1ccc(C(C)C)cc1 (stereo unspecified) | – | inconclusive [inhibitor, single point]
